Measurements reported in the supplement of paper PMC3334620.
In all, about 33,000 sequences were measured (“E-score (-0.5 to 0.5)”: median about -0.017, highest 2% from about 0.3 on). This is one part of the list.

Molecular target: T1, Sut1 (UniProt P53032)
T1 sequence: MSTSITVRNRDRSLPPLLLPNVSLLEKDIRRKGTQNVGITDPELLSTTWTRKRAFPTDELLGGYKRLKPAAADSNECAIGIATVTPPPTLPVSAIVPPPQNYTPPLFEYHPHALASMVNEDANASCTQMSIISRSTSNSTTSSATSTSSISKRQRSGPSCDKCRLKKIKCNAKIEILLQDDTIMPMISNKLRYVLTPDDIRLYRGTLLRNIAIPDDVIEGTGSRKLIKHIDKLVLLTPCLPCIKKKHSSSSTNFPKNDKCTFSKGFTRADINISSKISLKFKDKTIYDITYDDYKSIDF
Assay: PBM E-score (8-mer binding enrichment) (E-score (-0.5 to 0.5)); higher = stronger / more preferred TF binding; most listed sequences are background and not binding sites
Details: protein concentration: 200 nM; construct: GST-full length
Method in brief: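 The E-score, a modified Wilcoxon-Mann-Whitney statistic, was computed by the Universal PBM Analysis Suite for every ungapped eight-base word pooled with its reverse complement. Scans behind it were normalised with masliner after bound GST-tagged yeast transcription factors were detected with fluorescent anti-GST. The proteins, at about 100-200 nM, had been applied to universal all-10-mer Agilent arrays made double-stranded by primer extension.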

In order of rising “PBM E-score” value:
1. CACCTGCC  -0.335
2. GGGGACCA  -0.328
3. ACAGCTCT  -0.31
4. CTCTGGGA  -0.301
5. CCCCCGAC  -0.288
6. ACTAGCTG  -0.273
7. GAGCCAGC  -0.262
8. CCCGCGAC  -0.257
9. CGCCAGAG  -0.255
10. ACGCCCGC  -0.236
11. GCGTGGAC  -0.234
12. CAGTAGCG  -0.231
13. ACGCATTG  -0.229
14. GCTTGGCC  -0.227
15. GACGTCGC  -0.226
16. GGTCGTAC  -0.221
17. ACCGCTAG  -0.21
18. AGACGTGG  -0.203
19. CACGTGGA  -0.201
20. GAGCGGCA  -0.195
21. CATGTCAG  -0.193
22. ACCGCGGT  -0.187
23. ACCATGGA  -0.184
24. CCCTCTGA  -0.182
25. CTGTCACC  -0.181
26. CAAGTAGC  -0.181
27. GGTCCAAC  -0.179
28. GCGACGCA  -0.178
29. CGTGTCTA  -0.178
30. AGTGAGCC  -0.172
31. ATAGAGAG  -0.172
32. CGTCAGGA  -0.17
33. ATGCGTGG  -0.17
34. CAAGCTCA  -0.164
35. CGCCCTAG  -0.161
36. CAAGCCCC  -0.159
37. GGAACGCA  -0.154
38. CATCACTC  -0.153
39. AAACGAGG  -0.146
40. ATCGAGGC  -0.138
41. GAAGCCTA  -0.136
42. ACGCGAAC  -0.134
43. TCAGCCCA  -0.13
44. ACCTGGTG  -0.129
45. CGTCCACG  -0.127
46. GTCCCGAC  -0.119
47. ATCCGTGA  -0.119
48. AGGCCCGA  -0.118
49. GATGACAC  -0.117
50. ACTAGATC  -0.117
51. GACTGAAC  -0.116
52. AGGTAGAT  -0.114
53. CCTCACCG  -0.113
54. AGTGCTCA  -0.105
55. ACCTAACG  -0.0982
56. AACGCGAT  -0.0947
57. AGACCGTA  -0.0895
58. ACACGTGA  -0.0894
59. AGCGGTGG  -0.0886
60. GTGGGCCA  -0.0846
61. CATCGTCA  -0.0747
62. TATGAGCA  -0.0712
63. AGTCCACC  -0.0698
64. CAACGATG  -0.069
65. ACACGAAC  -0.0619
66. CAGTGACA  -0.0609
67. CGGGCTAC  -0.0584
68. ATCTAAGG  -0.057
69. AGTGGGCA  -0.0542
70. GTTCAGCA  -0.0537
71. GGGTGGAA  -0.0472
72. ATGACGCG  -0.0417
73. CCCGGCAG  -0.0403
74. GTGCTGAA  -0.0394
75. GACCTCGA  -0.0391
76. CATGGGCC  -0.0383
77. CCATGCAC  -0.0329
78. CAGAACCA  -0.028
79. GTCTGTCA  -0.0272
80. ATATCGGC  -0.0245
81. GGAAGTAC  -0.0238
82. CTCGTAAA  -0.0229
83. GTGGTCAA  -0.0216
84. AGCATGTA  -0.0201
85. CTATCCTC  -0.0176
86. CATTAGGA  -0.0109
87. CTAGAATC  -0.0101
88. GATCAAAC  -0.00328
89. ACCGACGA  -0.0025
90. TTGAACAA  -0.00206
91. ACTAGAGT  -0.00201
92. GGTATACC  0.00067
93. AATCCTGT  0.00205
94. CTAGGTAA  0.00352
95. GCTGAGAA  0.00666
96. GATCGTAA  0.00877
97. AACTGTCC  0.00966
98. CTTTAAAG  0.0105
99. ATTACAGC  0.0137
100. CTCACTTA  0.0144
101. AACCCAAA  0.0168
102. ACAGAATC  0.019
103. CAAGGTTC  0.0213
104. ACCGAGGT  0.0263
105. CTTATGAC  0.0351
106. CGAAGTTA  0.0358
107. CCCTTTAC  0.0371
108. AGTTAGCG  0.0376
109. CCCTTCCG  0.0394
110. CACTTAGA  0.0399
111. CAAGGATC  0.0407
112. AGCTTTTA  0.0431
113. TCGCTTAA  0.0457
114. AACTTTCG  0.0491
115. AAGAAGAG  0.0502
116. AAAAGATG  0.0556
117. GATCAATA  0.0565
118. AATCTGCG  0.0657
119. CTCTCTTA  0.0682
120. TACCAGTA  0.0745
121. CTGCAAAA  0.0749
122. CTAACTGA  0.0767
123. GAATTCGA  0.0801
124. AAAGTGTA  0.0802
125. AAGTCCTC  0.0867
126. CGTTACAA  0.0868
127. GAAATACA  0.0868
128. GATGTACA  0.0869
129. CGTTATTC  0.0871
130. CGTTTCAC  0.0886
131. CTCTAGAG  0.0888
132. CATGTTTC  0.0985
133. ATAATTCG  0.101
134. ATTAGAAT  0.105
135. AGTGTTCC  0.105
136. AGATGTAT  0.108
137. AATGGATA  0.11
138. GAAGACTC  0.111
139. TGATTGAA  0.112
140. ACTGCGAC  0.114
141. AACTTGTC  0.116
142. AAAAAGTA  0.125
143. CGATTATA  0.125
144. GTGTTCAA  0.127
145. CACCGAGC  0.128
146. CGAATAAC  0.13
147. AGTTGACG  0.139
148. AATCGCGG  0.141
149. AACAGTAA  0.146
150. GTAACAGA  0.147
151. ATAACGAG  0.151
152. ACGAAAGA  0.159
153. AAAGGAGT  0.162
154. TAACTCGA  0.164
155. TGTACTAA  0.164
156. GGACTCAA  0.172
157. AGGAAAAG  0.18
158. AAAACCTT  0.184
159. AAAGCGGC  0.184
160. ACTGTTAA  0.197
161. CGAGATAC  0.2
162. CCCAACTC  0.204
163. GACAAGAA  0.209
164. CCGAGATC  0.213
165. ATTTATCA  0.229
166. ATATATCC  0.244
167. ACTTTAAA  0.269
168. ACTTTTCC  0.27
169. TGTTGCAA  0.278
170. TATTAAAA  0.287
171. TATATTAA  0.315
172. ATATAAAT  0.325
